Some of the results follow. At the low end of the ranking the order means little.

This assay has as its target T1, GST-Rok (full length) (UniProt O34857).
T1 sequence: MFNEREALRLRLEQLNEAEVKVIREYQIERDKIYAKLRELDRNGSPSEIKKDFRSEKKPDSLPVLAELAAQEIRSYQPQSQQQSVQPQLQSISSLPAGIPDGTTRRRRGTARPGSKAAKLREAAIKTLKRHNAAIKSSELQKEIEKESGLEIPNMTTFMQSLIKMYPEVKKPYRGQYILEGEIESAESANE
As to the kind of experiment: protein binding microarray.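 Note: rank score from −0.5 (least bound) to 0.5 (best bound).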 As to conditions: Rok is a gene silencer of Bacillus subtilis; high values mean tight binding; most listed sequences are background and not binding sites; double strand, one strand shown.
In turn, TCAGATGA registered a binding signal of -0.14 E-score. Under AAGACTGA stands -0.0101 E-score; under CTGACTCA, -0.0975 E-score; under ATTAGTGG, 0.117 E-score. AAGATGGT showed a binding signal of 0.0131 E-score. For the sequence ACCAGGAG, the binding signal is -0.203 E-score. Consider AGCCGGGC, for which the binding signal was -0.389 E-score. Consider CCACCCTA, for which the binding signal was -0.188 E-score. Take GCGCAGAA: the binding signal was -0.0702 E-score. In turn, CCTCCAAG yielded a binding signal of -0.327 E-score. ACCCATTC: the binding signal was found to be 0.0548 E-score. GTAAAAAA: the binding signal came out at 0.221 E-score. As to AGATTAAG, the binding signal turned out to be 0.135 E-score. ATAGCAGA showed a binding signal of 0.144 E-score. Take AGCAGCCT: the binding signal is -0.0527 E-score. CTTGGGCC had a binding signal of -0.404 E-score. In the case of CAACTCAC it was -0.0111 E-score; in that of ATGCCCGC, -0.13 E-score; in that of CGGAAGGC, -0.439 E-score. Under CACCCCTA stands -0.273 E-score; under CAATAGGA, -0.172 E-score; under CCATGCAG, -0.0628 E-score. On to AATGCGTG, for which the binding signal was 0.011 E-score. CGTTAGAG displayed a binding signal of -0.103 E-score. TAAGAGAA showed a binding signal of 0.0944 E-score.

CCAGCCAA: the binding signal was -0.28 E-score. TAATTAGA returned a binding signal of 0.28 E-score. Under GTACCCAC stands -0.0243 E-score; under AACGCCAT, 0.0623 E-score. Regarding GTCCAGAA, the binding signal was -0.0598 E-score. The sequence AGACCGCG showed a binding signal of -0.227 E-score. In turn, ACTTACCC had a binding signal of -0.106 E-score. Sequence AACCTAGT yielded a binding signal of 0.283 E-score.

Sequence CCTTCCGA gave a binding signal of -0.371 E-score.

Take ATTTTTAC: the binding signal was found to be 0.335 E-score.

For ACGACACG, the binding signal is -0.0491 E-score. Regarding CCGTCCGC, the binding signal was -0.158 E-score. For GCTAACCC, the binding signal is -0.116 E-score. Take CCGGTAAG: the binding signal is -8.86e-05 E-score. As to ACCTACGG, the binding signal was -0.0536 E-score. In turn, AATTAATT displayed a binding signal of 0.291 E-score. Regarding CTATAGGA, the binding signal came out at 0.156 E-score. Under AGACCACA stands -0.0913 E-score; under GCGAGCCA, -0.183 E-score.

With ATTACAGC, the binding signal was found to be 0.19 E-score. As to CCTAGATA, the binding signal was found to be 0.101 E-score. Sequence AGCGCGTC yielded a binding signal of -0.133 E-score. In the case of AGGCGGCC it was -0.446 E-score. In the case of GTGTGTAA it was 0.0808 E-score; in that of CGGAAAGC, -0.146 E-score. As for CGGCGGTC, the binding signal was -0.184 E-score. Sequence CGACAGTA gave a binding signal of 0.192 E-score. For the sequence CGTAGGGA, the binding signal is -0.218 E-score.

Sequence ATCACCAC displayed a binding signal of 0.0467 E-score.

In turn, CTCTCGTC gave a binding signal of -0.255 E-score.

Sequence CGGTCACA came in with a binding signal of -0.0187 E-score. ACCTTTCG registered a binding signal of -0.0106 E-score. The sequence GGTGGGGA showed a binding signal of -0.398 E-score. In the case of CTTTCGTC, the binding signal was -0.045 E-score. Consider AGTCTTAT, for which the binding signal was found to be 0.185 E-score.

ATATTACC returned a binding signal of 0.273 E-score. CGCATAAC had a binding signal of 0.184 E-score.

With TAGTAATA, the binding signal is 0.408 E-score. Under AAGCGGCA stands -0.133 E-score.

Take AACTTAAG: the binding signal came to 0.0622 E-score.

As for GGAAATGA, the binding signal was found to be 0.0579 E-score.

In turn, CGTCTAAA displayed a binding signal of -0.027 E-score. With CACTGTAG, the binding signal came out at 0.0728 E-score. Under CTTTGTTC stands -0.0972 E-score. Take CTGTTATC: the binding signal is -0.0552 E-score. Turning to CAGCCTTA, the binding signal was -0.113 E-score. In the case of ACATGGCA it was 0.0934 E-score; in that of AACAGCTA, 0.161 E-score. Turning to GTCCTGGA, the binding signal was -0.0873 E-score. Under ACATTCAG stands 0.118 E-score; under CAGGCTCG, -0.325 E-score; under ATTTTGTC, 0.123 E-score.

Sequence AGAGGCGA came in with a binding signal of -0.0227 E-score. ACGGTGGC registered a binding signal of -0.0906 E-score. Under CGTTAAAA stands 0.118 E-score; under AAGTGGTC, -0.0764 E-score; under CAGGCCAG, -0.143 E-score. Sequence CTTTACTC showed a binding signal of -0.0813 E-score. As to AAGGAAGT, the binding signal is -0.269 E-score. Under CCCTTAAC stands -0.134 E-score; under CACGGCTG, -0.157 E-score. CTTGCGTC registered a binding signal of -0.102 E-score. Sequence ATGCACAT came in with a binding signal of 0.215 E-score. In the case of ACCCAGGG, the binding signal was -0.309 E-score. In turn, GGGGGATA returned a binding signal of -0.354 E-score. In the case of ATGGGTAC, the binding signal is -0.0403 E-score. Sequence TATGCCCA displayed a binding signal of -0.222 E-score. AATTAGAG showed a binding signal of 0.157 E-score.

As to CATGCTCC, the binding signal is -0.226 E-score. With CTTCACCC, the binding signal is -0.126 E-score. In the case of TAATTGCA it was 0.157 E-score; in that of ATTGTGGG, -0.0544 E-score.

GGAGCTCC displayed a binding signal of -0.0169 E-score. In turn, CAGCAGTA came in with a binding signal of 0.0249 E-score. The sequence CTGACGGA showed a binding signal of -0.238 E-score. In the case of GCCAGGCC, the binding signal is -0.244 E-score. In the case of CCACTAAG, the binding signal was -0.137 E-score. Turning to ATGCATCG, the binding signal was determined as 0.00495 E-score. CGATCGAC yielded a binding signal of 0.0109 E-score. For the sequence ATAAGCGG, the binding signal was -0.143 E-score. Take CCAATATA: the binding signal is 0.306 E-score. Sequence AGACACGG yielded a binding signal of 0.272 E-score. CAAGGCCA displayed a binding signal of -0.323 E-score.

TGCCAACA came in with a binding signal of -0.174 E-score. Take ATTGGGGG: the binding signal was -0.251 E-score.

AATACTCA displayed a binding signal of 0.174 E-score. Turning to GCTGAGAA, the binding signal was -0.0856 E-score. In the case of AAGTGAAT, the binding signal was -0.0107 E-score.

Regarding CCCACTCC, the binding signal was -0.31 E-score. CCATTGGA: the binding signal is -0.102 E-score. Under GCCCTCTA stands -0.253 E-score; under ATCCGGGG, -0.298 E-score. Under ACAACATA stands 0.0833 E-score.

The sequence AGTCCCTG showed a binding signal of -0.255 E-score.

In turn, AGCTAGAA showed a binding signal of 0.329 E-score. Under GACTCAGA stands -0.109 E-score.

GATAATGC came in with a binding signal of 0.248 E-score.

Turning to CTTTGTTA, the binding signal was 0.124 E-score.

As for AGGTGGAG, the binding signal is -0.241 E-score. CCTGCACG had a binding signal of -0.111 E-score.

On to AGGGACCT, for which the binding signal is -0.364 E-score. Sequence CAGAGTTA came in with a binding signal of -0.0506 E-score. ATCGTTGG came in with a binding signal of -0.063 E-score. For the sequence AAGAACCA, the binding signal is -0.0889 E-score. Sequence TCTCGACA yielded a binding signal of -0.0144 E-score. TAGCAGCA gave a binding signal of 0.0346 E-score. In the case of ATCCCGGA it was -0.218 E-score; in that of GTAGTACA, 0.236 E-score; in that of CAATACTA, 0.261 E-score. AAGTGGCC returned a binding signal of -0.0526 E-score. The sequence CAGGTTGC returned a binding signal of -0.259 E-score. The sequence TCACACCA showed a binding signal of -0.000143 E-score. As to CATGCTAC, the binding signal was 0.22 E-score. Regarding GACAACTC, the binding signal is -0.181 E-score. AGATTGTG: the binding signal is 0.104 E-score.

As to CTTATGGC, the binding signal was -0.0497 E-score.

In turn, AACTTCAC gave a binding signal of -0.0432 E-score.

AGTCCCGA came in with a binding signal of -0.215 E-score. In the case of GTCCTAGA it was -0.0552 E-score; in that of ATTCTTTA, 0.201 E-score.

Sequence CTTACGTC came in with a binding signal of -0.135 E-score.

As to TATCTGCA, the binding signal stood at 0.102 E-score. Sequence GTCATGAC displayed a binding signal of 0.07 E-score. In the case of GTTCAACA, the binding signal was 0.106 E-score. The sequence ATCCTTGC displayed a binding signal of -0.228 E-score.

The sequence CCTAGGGC gave a binding signal of -0.314 E-score.

ATATTAGC showed a binding signal of 0.248 E-score. In turn, GAAGACTA returned a binding signal of 0.123 E-score. Turning to CGTACAAC, the binding signal is 0.103 E-score.

Take ATTATGTC: the binding signal came to 0.191 E-score. CGGCTGTC displayed a binding signal of -0.298 E-score. GTTTGGAA registered a binding signal of 0.0901 E-score. CTATTAAG returned a binding signal of 0.139 E-score. Sequence CTAAGACC showed a binding signal of -0.172 E-score.

Turning to ATATGTTG, the binding signal amounted to 0.16 E-score. In turn, CACTTTAC showed a binding signal of 0.0531 E-score.

The sequence CCCATGCC showed a binding signal of -0.427 E-score. In the case of ACTCCTAG it was -0.132 E-score; in that of ATAGTGCA, 0.12 E-score. Consider AGCCAGAG, for which the binding signal is -0.173 E-score. For the sequence AGTAATAA, the binding signal was 0.197 E-score.

In turn, CAAGACCA came in with a binding signal of -0.175 E-score. Take GCAAACCA: the binding signal is -0.161 E-score. In the case of CGACTTAC it was 0.229 E-score. Under GGCACCAA stands -0.179 E-score; under CCGCCTAG, -0.269 E-score. As to ATGTGGAA, the binding signal was -0.0729 E-score.

The values above are taken from article PMC6212790.
